# Data published in PubChem BioAssay AID2675 (National Center for Advancing Translational Sciences (NCATS), 2010).
# Several values for one entry are separate records, joined by “and”; a condition that tells them apart may be missing. Equal values may be shown once. Screen size: about 280,000 compounds; about 100 (0.036%) were called active. The shares of active, inactive and inconclusive entries below differ from those in the screen. Calls come from the whole dose curve; as a rule, active = well fitted inhibition curve with a large enough effect in the signal ratio, with a control signal flat (not every such curve was filed as active); inconclusive = small, poorly fitted or top-dose-only effect, or effect the other way, or a change in a side signal; inactive = no such curve, though single readings can be large or run the other way; the % refers to the signal ratio. Potencies beside an inconclusive call are fits to weak or partial responses and may not hold up. A note “side channel” means that the fit belongs to a control or component signal, not to the main read-out.
# Target: Muscleblind-like protein 1 (Homo sapiens) (UniProt Q9NR56)
# Assay: qHTS Assay for Inhibitors of MBNL1-poly(CUG) RNA binding
# Settings: TR-FRET MBNL1-His/biotin-(CUG)12 binding, 665/545 ratio; activity change, negative = inhibition: at 57.5 µM (top of the series)
# Outline: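 Ratiometric TR-FRET (665 over 545 nm, excitation 340 nm) tracks disruption of MBNL1-His/biotin-(CUG)12 complex after 60 min at room temperature, with compounds at 92 nM to 58 uM final.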
# % is set by controls: 0 for no effect and ±100 for the full control effect; potency is the fitted concentration of half-maximal effect; tags give direction and shape of the fitted curve or compound fluorescence and quenching.
# Chain of UniProt Q9NR56 (Q9NR56 whole entry, looked up): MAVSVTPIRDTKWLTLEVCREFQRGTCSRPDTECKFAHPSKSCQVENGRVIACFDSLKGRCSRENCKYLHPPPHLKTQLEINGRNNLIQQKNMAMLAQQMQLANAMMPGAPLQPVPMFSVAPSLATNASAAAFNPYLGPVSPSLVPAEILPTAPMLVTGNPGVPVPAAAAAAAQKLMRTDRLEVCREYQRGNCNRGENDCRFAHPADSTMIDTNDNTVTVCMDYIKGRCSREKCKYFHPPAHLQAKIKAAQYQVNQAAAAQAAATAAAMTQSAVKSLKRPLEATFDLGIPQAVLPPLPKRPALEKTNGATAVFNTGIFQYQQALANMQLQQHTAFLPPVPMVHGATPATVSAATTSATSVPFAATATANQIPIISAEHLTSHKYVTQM
Structure (SMILES),"activity change, negative = inhibition",Potency
CCc1cc(C(N)=S)ccn1,inactive: 1.27%,
Cc1cc(C(C)(C)C)ccc1OCCN(C)C,inactive: 2.56%,
COc1ccc(/C=N/NC(=O)c2cccc([N+](=O)[O-])c2)cc1O,,"inconclusive: 15.8 µM [quencher, side channel, partial curve]"
CCC1CCCCN1C(=O)CSc1nnc(-c2cccc(Cl)c2)o1 (stereo not given),,"inconclusive: 39.8 µM [quencher, side channel, single point]"
COc1ccc(-c2ccc3ccccc3n2)cc1OC,,"inconclusive: 25.1 µM [quencher, side channel, single point]"
CCc1ccc(NC(=O)COC(=O)c2ccc(Cl)c(S(=O)(=O)N3CCCCCC3)c2)cc1,,"inconclusive: 8.91 µM [quencher, side channel, single point]"
COc1ccc(/C=N/NC(=O)c2ccc(N)cc2)cc1Cn1cc([N+](=O)[O-])cn1,,"inconclusive: 31.6 µM [quencher, side channel, partial curve]"
CC(OC(=O)c1c2c(nc3ccccc13)/C(=C\c1ccc3c(c1)OCO3)CCC2)C(=O)Nc1ccc(S(N)(=O)=O)cc1 (stereo not given),inactive: 33.3%,
CCOc1ccc(C(C)=O)cc1COC(=O)c1cnc(Cl)c(Cl)c1,,"inconclusive: 31.6 µM [fluorescent, side channel, single point]"
Fc1cnc(N2CCOCC2)nc1N1CCc2ccccc21,,"inconclusive: 39.8 µM [quencher, side channel, single point]"
COc1ccc(/C=N/N=C(\N)c2nonc2N)cc1,,"inconclusive: 22.4 µM [quencher, side channel, partial curve]"
O=C1CC(c2ccco2)=Nc2ccccc2N1,,"inconclusive: 25.1 µM [quencher, side channel, single point]"
CCC(=O)Nc1nc(C)c(-c2csc(Nc3cccc(C(=O)O)c3)n2)s1,,"inconclusive: 25.1 µM [quencher, side channel, single point]"
Clc1ccc(CN2CCCCCCC2)cc1Cl,,"inconclusive: 0.794 µM [quencher, side channel, full curve, poor fit]"
O=C(CN1C(=O)COc2ccc(S(=O)(=O)N3CCCC3)cc21)Nc1cccc(F)c1,inactive: -0.593%,
CCN(CC)c1nc(C(N)=O)cc(-c2ccccc2)n1,inactive: 5.06%,
O=[N+]([O-])c1ccccc1/C=N/n1c(-c2cccnc2)n[nH]c1=S,inactive: 6.58%,
COc1ccc2[nH]c(=O)c(C(c3nnnn3CC3CCCO3)N3CCCCC3)cc2c1 (stereo not given),inactive: -4.79%,
Cc1cccc2c1-c1sc(C(=O)Nc3cccc([N+](=O)[O-])c3C)cc1CO2,inactive: -10.9%,
COc1ccc(C(=O)Nc2ccc(N3CCN(C)CC3)cc2)cc1[N+](=O)[O-],,"inconclusive: 20 µM [quencher, side channel, partial curve]"
Cc1ccc2nsnc2c1S(=O)(=O)N1CCN(CCc2ccccc2)CC1,,"inconclusive: 28.2 µM [quencher, side channel, partial curve]"
CC(C)(C)NC(=O)C(c1ccccc1)N(Cc1cccs1)C(=O)c1csnn1 (stereo not given),,"inconclusive: 39.8 µM [inhibitor, single point]"

Structure (SMILES),"activity change, negative = inhibition",Potency
O=[N+]([O-])c1cccnc1N1CCN(Cc2ccc3c(c2)OCO3)CC1,,"inconclusive: 35.5 µM [quencher, side channel, partial curve]"
Cn1cccc1/C=N/NC(=O)c1cccnc1,,"inconclusive: 3.98 µM [quencher, side channel, single point]"
O=c1cnc2cc([N+](=O)[O-])ccc2[nH]1,,"inconclusive: 12.6 µM [quencher, side channel, partial curve]"
COc1ccccc1C1OC2=C(Nc3ccc([N+](=O)[O-])cc3N2)C1=O (stereo not given),,"inconclusive: 6.31 µM [quencher, side channel, partial curve]"
CC(=O)N1N=C(c2ccc3nccnc3c2)CC1c1ccccc1 (stereo not given),inactive: 13.3%,
COC(=O)c1c(NC(=O)CCCC(=O)O)sc(C)c1C,inactive: -2.89%,
O=C(Nc1cccc(-c2csc(Nc3ccccc3)n2)c1)c1ccccc1,inactive: 2.17%,
O=S(=O)(c1ccc(NC2CCCc3ccccc32)nc1)N1CCOCC1 (stereo not given),inactive: 10.6%,
COC(=O)C1=C(C)N(C)C(=S)NC1c1c(OC)ccc2ccccc12 (stereo not given),,"inconclusive: 14.1 µM [quencher, side channel, partial curve]"
CC(=O)Oc1cccc(N2C(=O)c3ccc(C(=O)Nc4cccnc4)cc3C2=O)c1,,"inconclusive: 7.08 µM [quencher, side channel, partial curve]"
S=c1nc(-c2ccc(Cl)cc2)[nH][nH]1,inactive: -10.7%,
CC(C)c1ccc(NC(=O)CCNS(=O)(=O)c2cccc3nonc23)cc1,,"inconclusive: 15.8 µM [quencher, partial curve]"
O=C(NCc1cccnc1)c1ccccn1,,"inconclusive: 0.141 µM [quencher, side channel, full curve, poor fit]"
O=C(/C=C/c1ccc([N+](=O)[O-])cc1)NCc1cccs1,,"inconclusive: 1 µM [quencher, full curve]"
COc1ccc(CCNS(=O)(=O)c2cccc([N+](=O)[O-])c2)cc1,,"inconclusive: 28.2 µM [quencher, side channel, partial curve]"
Cc1nn(C)cc1CN(C)Cc1ccc(OCC(O)CN2CCCCC2)cc1 (stereo not given),inactive: 14.5%,
Cc1ccc(-c2csc(C3C(N)=NC(S)=C(C#N)C34CCCCC4)n2)cc1 (stereo not given),inactive: 5.72%,
Cn1c(SCC(=O)N/N=C/C=C/c2ccco2)nc2ccccc21,,"inconclusive: 14.1 µM [quencher, side channel, partial curve]"
CCOc1ccc(NC(=O)CCC(=O)N/N=C2\CCCc3ccccc32)cc1,,"inconclusive: 31.6 µM [quencher, side channel, single point]"
COc1ccc(/C(C#N)=C/c2cccnc2)cc1,,"inconclusive: 17.8 µM [quencher, side channel, partial curve]"
Cn1cc(C2=C(c3ccc(Cl)cc3Cl)C(=O)NC2=O)c2ccccc21,,"inactive and inconclusive: 39.8 µM [fluorescent, side channel, single point]"
CCn1c(O)c(N=NC(=S)NCC2CCCO2)c2ccccc21 (stereo not given),,"inconclusive: 25.1 µM [quencher, side channel, partial curve]"

Structure (SMILES),"activity change, negative = inhibition",Potency
O=C(NCC1CCCO1)c1coc2nc3ccccc3nc12 (stereo not given),,"inconclusive: 20 µM [quencher, side channel, partial curve]"
Clc1cccc(-c2nc(-c3ccccn3)no2)c1,inactive: 1.97%,
CN(C)S(=O)(=O)c1cccc(NC(=O)COC(=O)c2ccc([N+](=O)[O-])o2)c1,,"inconclusive: 39.8 µM [quencher, side channel, single point]"
COc1cc(-c2c(C(C)=O)c(C)nc3c2C(=O)c2ccccc2-3)cc(OC)c1OC,,"inconclusive: 2.51 µM [quencher, side channel, partial curve, poor fit]"
COc1cc2c(C(=O)NCc3ccc(C)o3)cn(CC(C)C)c(=O)c2cc1OC,inactive: -7.35%,
CCOC(=O)C1=NN(c2ccccc2)C(c2ccccc2)CC1=O (stereo not given),,"inconclusive: 31.6 µM [quencher, side channel, partial curve]"
CCOc1ccc(S(=O)(=O)n2cc(F)c(=O)[nH]c2=O)cc1[N+](=O)[O-],,"inconclusive: 31.6 µM [quencher, side channel, single point]"
COc1cc(/C=N/NC(=O)c2cccc([N+](=O)[O-])c2)ccc1OCc1ccccc1,inactive: -6.09%,
Cc1cc(NC(=O)CCCN2C(=O)c3cccnc3C2=O)no1,,"inconclusive: 25.1 µM [quencher, side channel, partial curve]"
COc1ccc(-c2cc(C(F)(F)F)nc(S(C)(=O)=O)n2)cc1,inactive: 6.51%,
O=C(Nc1ccc(Cl)cn1)c1ccc([N+](=O)[O-])o1,,"inconclusive: 11.2 µM [quencher, side channel, partial curve]"
CC1CCCN(CCCNC(=O)c2cc3c(s2)-c2ccccc2OC3)C1 (stereo not given),,"inconclusive: 25.1 µM [quencher, partial curve]"
N=c1c(C(=O)NCCc2ccccc2)cc2c(=O)n3ccccc3nc2n1Cc1ccco1,,"inconclusive: 3.55 µM [quencher, side channel, full curve]"
c1ccc2c(c1)nnn2Cc1nnc2sc(-c3ccc4c(c3)OCCO4)nn12,inactive: 6.14%,
C(=N\Nc1nc2ccccc2[nH]1)/C1CCCCC1,inactive: 4.05%,
CCc1cc(=O)oc2cc(C)c(CN3CCCC3)c(O)c12,inactive: -17.6%,
C=CCN(c1ccc(C(=O)Nc2cccc([N+](=O)[O-])c2)cc1)S(C)(=O)=O,,"inconclusive: 15.8 µM [quencher, side channel, partial curve, poor fit]"
O=C(CCC1CCCN(C(=O)c2cc(C3CC3)[nH]n2)C1)N1CCN(c2ccccn2)CC1 (stereo not given),,"inconclusive: 0.562 µM [inhibitor, full curve, poor fit]"
COc1ccc(-c2cc(=O)[nH]c(NCc3ccccc3)n2)cc1,,"inconclusive: 22.4 µM [fluorescent, side channel, single point]"
CCN(C(=O)c1cc([N+](=O)[O-])ccc1NCc1cccnc1)c1ccccc1,,"inconclusive: 22.4 µM [quencher, side channel, partial curve]"
COCCCNC(=O)/C(C#N)=C/c1c(N2CCN(c3ccccc3)CC2)nc2c(C)cccn2c1=O,,"inconclusive: 25.1 µM [quencher, single point]"
